Tests used:
[1] = biological target: T1, ecMenE R195K (Escherichia coli, UniProt P37353, R195K); assay type: biochemical
[2] = biological target: T1, ecMenE R195K; conditions: ITC
[3] = biological target: ecMenE R195Q (Escherichia coli, UniProt P37353, R195Q); conditions: ITC

Row | Compound | kcat ([1]; R195K ecMenE, substrate OSB) | decrease in kcat/KM compared to wild-type ([1]; R195K vs wild-type ecMenE) | increase in KM for OSB ([1]; R195K vs wild-type ecMenE) | Km ([1]; read-out: KM OSB, R195K ecMenE, pH 7.4, 25°C) | ΔG ([2]; R195K ecMenE) | ΔH ([2]; R195K ecMenE) | decrease in binding affinity (increase in Kd) relative to wild-type ([2]; R195K vs wt ecMenE) | ΔΔG ([2]; R195K vs wt ecMenE) | Kd ([2]; read-out: Kd OSB-AMS, R195K ecMenE) | ΔG ([3]; R195Q ecMenE) | ΔH ([3]; R195Q ecMenE) | decrease in binding affinity (increase in Kd) relative to wild-type ([3]; R195Q vs wt ecMenE) | ΔΔG ([3]; R195Q vs wt ecMenE) | Kd ([3]; read-out: Kd OSB-AMS, R195Q ecMenE)
1 | O=C(O)CCC(=O)c1ccccc1C(=O)O [OSB, o-succinylbenzoate] | 0.783 ± 0.0055 s⁻¹ | 15 fold | 16 fold | 16 ± 1.4 µM | – | – | – | – | – | – | – | – | – | –
2 | Nc1ncnc2c1ncn2[C@@H]1O[C@H](COS(=O)(=O)NC(=O)CCC(=O)c2ccccc2C(=O)O)[C@@H](O)[C@H]1O [compound 1, OSB-AMS] | – | – | – | – | -8.8 kcal/mol | -2.5 ± 0.20 kcal/mol | 9 fold | 1.2 kcal/mol | 394 ± 36 nM | -7.3 kcal/mol | -3.1 ± 0.10 kcal/mol | 102 fold | 2.7 kcal/mol | 4500 ± 112 nM
